# Laboratory results as given in PMC4336329 (PLoS ONE, 2015).
# The campaign covered roughly 310,000 compounds. About 14,000 (4.5%) showed an effect of 50% or more. The effect is printed as a negative number. The list shows a part of the results.
# Biological target: human ether-à-go-go-related gene (hERG) potassium channel (human, UniProt Q12809)
# Test: primary screen, population patch clamp on CHO cells stably expressing hERG
# 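Also: peak tail current of the secondary pulse compared with the same well before compound.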
# Sequence of human ether-à-go-go-related gene (hERG) potassium channel (Q12809 whole entry, looked up): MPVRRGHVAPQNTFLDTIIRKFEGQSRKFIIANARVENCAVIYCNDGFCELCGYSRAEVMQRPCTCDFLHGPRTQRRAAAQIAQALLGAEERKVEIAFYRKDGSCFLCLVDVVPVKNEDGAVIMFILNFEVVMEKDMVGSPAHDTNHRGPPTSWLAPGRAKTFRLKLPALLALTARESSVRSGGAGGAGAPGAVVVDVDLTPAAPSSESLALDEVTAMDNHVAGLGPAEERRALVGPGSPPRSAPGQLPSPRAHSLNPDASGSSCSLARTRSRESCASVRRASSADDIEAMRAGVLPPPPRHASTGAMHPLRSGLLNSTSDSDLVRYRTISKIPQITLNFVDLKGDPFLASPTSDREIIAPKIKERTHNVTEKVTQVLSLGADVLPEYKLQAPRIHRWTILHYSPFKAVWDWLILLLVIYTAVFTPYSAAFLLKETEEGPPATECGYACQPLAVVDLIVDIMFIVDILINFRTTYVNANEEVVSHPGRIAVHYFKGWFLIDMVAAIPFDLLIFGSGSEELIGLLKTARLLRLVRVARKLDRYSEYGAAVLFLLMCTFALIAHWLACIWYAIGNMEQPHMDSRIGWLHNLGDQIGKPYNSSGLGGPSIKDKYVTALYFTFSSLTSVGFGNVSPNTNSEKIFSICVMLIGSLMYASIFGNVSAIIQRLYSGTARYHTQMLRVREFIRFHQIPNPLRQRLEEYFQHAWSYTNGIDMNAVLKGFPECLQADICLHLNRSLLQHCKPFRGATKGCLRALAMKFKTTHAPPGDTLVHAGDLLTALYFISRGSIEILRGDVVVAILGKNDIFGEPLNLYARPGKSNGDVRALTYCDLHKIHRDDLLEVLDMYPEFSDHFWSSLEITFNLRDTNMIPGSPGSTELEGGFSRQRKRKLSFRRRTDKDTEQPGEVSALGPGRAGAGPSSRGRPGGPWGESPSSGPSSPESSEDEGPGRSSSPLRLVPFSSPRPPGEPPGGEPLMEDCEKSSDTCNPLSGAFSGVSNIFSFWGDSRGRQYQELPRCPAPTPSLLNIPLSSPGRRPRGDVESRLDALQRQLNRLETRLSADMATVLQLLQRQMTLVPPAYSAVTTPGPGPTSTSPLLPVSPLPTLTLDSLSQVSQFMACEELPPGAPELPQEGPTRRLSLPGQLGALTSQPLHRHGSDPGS
row,SMILES,"hERG current change (%, negative = inhibition) at 10uM"
1,Cc1cc(-c2n[nH]c(=S)n2-c2ccccc2)nn1C,7.14%
2,Cc1ccc2c(c1)c(=O)c1c3n2CCN(C(=O)CCl)C3CC1 (stereo not drawn),-5.11%
3,COc1ccc2c(c1OC)C(=O)OC2Nc1nc2ccccc2s1 (stereo not drawn),12.4%
4,O=C1CCCC(O)=C1C(C#Cc1ccccc1)C1=C(O)CCCC1=O,-17.9%
5,CCOc1ccc(NS(=O)(=O)c2cc(C)c(C)cc2C)cc1,0.233%
6,CCN1CCN(C(=O)c2ccc(Cl)c(S(=O)(=O)N3CCCCCC3)c2)CC1.Cl,-60.9%
7,Cc1nc2c(-c3ccccc3)c(C)[nH]n2c(=O)c1Cc1ccccc1,-3.64%
8,O=C1C=C(c2ccccc2)CC(c2ccc(F)cc2)C1 (stereo not drawn),-28.2%
9,COCCn1c(SCC(=O)Nc2c(C)n(C)n(-c3ccccc3)c2=O)nnc1-c1ccncc1,5.95%
10,Cc1ccc(NC(=O)c2cc3ccccc3oc2=O)cc1S(=O)(=O)N(C)C,13.8%
11,O=c1cc(-c2ccccc2)nc(SCc2ccccc2F)[nH]1,17.3%
12,CCOC(=O)C1(CCc2ccccc2)CCN(Cc2ccc(OC)cc2)CC1,-77.5%
13,CC(=O)Nc1nc(C)c(Oc2cccc(C(F)(F)F)c2)c(=O)[nH]1,-0.986%
14,CCCCOc1cc(C(=O)OCCN(CC)CC)ccc1N.Cl,-53.6%
15,Cc1ccc(CN2CCNC(=O)C2CC(=O)O)cc1 (stereo not drawn),9.54%
16,CC(OC(=O)c1cccnc1)C(=O)Nc1ccc2c(c1)OCO2 (stereo not drawn),30.2%
17,NC(=S)Nc1cccc2cn[nH]c12,12.8%
18,COc1ccc(CCC(=O)NCCc2ccc(OC)c(OC)c2)cc1,19.9%
19,O=C(Cn1cc(C(F)(F)F)ccc1=O)Nc1ccc(N2CCOCC2)cc1,22%
20,COC(=O)C(CCCN1C(=O)c2ccccc2C1=O)(NC(C)=O)c1nnn(C)n1 (stereo not drawn),4.11%
21,Cc1cc(C)cc(NC(=O)C(OC(=O)c2cccs2)c2ccccc2)c1 (stereo not drawn),18.7%
22,CC1CCN(CC(=O)NC(=O)NCc2ccccc2)CC1,8.38%
23,CC12CCC(C(=O)Nc3ccncc3)(CC1O)C2(C)C (stereo not drawn),7.48%

row,SMILES,"hERG current change (%, negative = inhibition) at 10uM"
1,CCN(CC)C(=O)C1CCCN(Cc2cccc(F)c2)C1 (stereo not drawn),7.43%
2,CCC(C)(C)n1nnnc1C(c1cc2cc3c(cc2[nH]c1=O)OCO3)N1CCN(C)CC1 (stereo not drawn),-5.67%
3,CC(C)C(C)(C#N)NC(=O)CSc1nnc(-c2ccccc2)o1 (stereo not drawn),-4.63%
4,O=C(Nc1ncc(Cc2ccccc2Cl)s1)C1CCCO1 (stereo not drawn),7.65%
5,Cc1ccc(NC(=O)Cc2ncc(C(F)(F)F)cc2Cl)cc1Cl,0.534%
6,CCOc1ccc(-c2cc(C(=O)NN)[nH]n2)cc1,-6.33%
7,Clc1ccc(-c2nc(-c3ccccn3)no2)cc1Cl,-0.434%
8,CCOc1ccc(Nc2nc(-c3sc(N)nc3C)cs2)cc1,15.7%
9,CCN(C(=O)CSc1ncn[nH]1)c1cccc2ccccc12,3.47%
10,O=C(CCc1nnc2ccc(N3CCCC3)nn12)Nc1ccc(F)c(F)c1,9.52%
11,CCOCCCn1c(=S)[nH]c2cc(C(=O)N3CCN(c4ccccc4)CC3)ccc2c1=O,3.12%
12,Cc1ccccc1CN1C(=O)Nc2ccccc2C(=O)N1C(C)(C)C,-6.86%
13,CCC1Sc2ccccc2N(CC(=O)NC2CCCC2)C1=O (stereo not drawn),-3.63%
14,Cc1ccc(NC(=O)CSc2ncc3ccccn23)cc1,-2.63%
15,O=C(Cn1cc(C(F)(F)F)ccc1=O)N/N=C/c1ccc(O)cc1,2.18%
16,COc1ccc(/C(C)=N/NC(=O)CNC(=O)/C=C\c2ccccc2)c(OC)c1,-9.28%
17,COCCNC(=O)CSc1nc2cc(OC)c(OC)cc2c(=O)n1Cc1ccco1,-61.2%
18,Cc1ccc(C(=O)SC2=NCCS2)cc1,-16.6%
19,COCCNC(=O)C(OC(=O)c1ccco1)c1ccccc1OC (stereo not drawn),4.24%
20,c1ccc(CSc2nnc(-c3ccccc3)c(-c3ccccc3)n2)cc1,0.0842%
21,Cn1cccc1/C=N/n1cnnc1,-15.7%
22,Cc1ccc(C(C)C)c(OCC(=O)N2CCOCC2)c1,-5.95%
23,COc1cc(NC(=O)CN(C)S(=O)(=O)c2ccc3c(c2)CC(C)N3C(C)=O)cc(OC)c1OC (stereo not drawn),13%

row,SMILES,"hERG current change (%, negative = inhibition) at 10uM"
1,O=C(Cc1ccon1)c1ccc(O)cc1O,10.6%
2,O=C(Nc1nccs1)C1CC=CCC1 (stereo not drawn),15.2%
3,OCc1ccccc1SSc1ccccc1CO,14.5%
4,Cc1[nH]c2ccccc2c1C(=O)CSc1nc2ncc(Cl)cc2[nH]1,25%
5,C=CCNc1nc(N)c(C(=O)Nc2cc(C)on2)s1,5.36%
6,COC(=O)[C@]1(Cc2ccccc2)N[C@H](c2ccc(-c3ccc(F)cc3)cc2)[C@@H]2C(=O)N(C)C(=O)[C@@H]21.O=C(O)C(F)(F)F,2.64%
7,Cc1oc(-c2nc3ccccc3n2C)cc1C(=O)c1ccccc1,-48.7%
8,CC(C)n1c(-c2cccnc2)nc2cnccc21,1.55%
9,O=C1/C(=C\c2cc(Br)cc(Br)c2O)SC(=S)N1Cc1ccccc1,18.9%
10,Cc1ccc(OCC(=O)Nc2ccc(-c3nc4ncccc4o3)cc2)cc1,10.5%
11,CC(C)CC(/C(O)=C(\C#N)c1nc2ccccc2[nH]1)N1C(=O)c2ccccc2C1=O (stereo not drawn),-3.15%
12,O=C1CCC([N+](=O)[O-])C(c2ccc(Cl)cc2)N1 (stereo not drawn),-28.7%
13,Cc1cc(SCC(=O)Nc2cccc(S(=O)(=O)NC3=NCCCCC3)c2)nc2ccccc12,-5.93%
14,CCC(C)(C)NC(=O)C(c1ccncc1)N(Cc1cccs1)C(=O)Cn1nnc2ccccc21 (stereo not drawn),-43.7%
15,CCc1cc2c(cc3c(=O)n(CC(=O)NCCCN(CC)CC)nc(CC)n32)s1,-34.9%
16,N#CC1(CCCN2CCCCC2)c2ccccc2CCc2ccccc21.O=C(O)C(=O)O,-52.7%
17,CCN(CC(=O)Nc1c(F)cccc1F)C(=O)CCNS(=O)(=O)c1ccccc1C(F)(F)F,3.06%
18,Clc1ccc(-c2nnc(SCc3ccon3)o2)c(Cl)c1,-33.9%
19,Cc1cccc(C)c1NC(=O)CN(C)C(=O)CCc1nc2sc3c(c2c(=O)[nH]1)CCCC3,5.53%
20,CCCN1CCc2c(sc(NC(=O)CCS(=O)(=O)c3ccccc3)c2C(=O)OC)C1.Cl,-67%
21,COc1ccc(C(=O)N2CCN(S(=O)(=O)c3ccc(C)cc3C)CC2)cc1OC,-20.7%
22,Nc1nc2ccc(-c3nc4ccccc4o3)cc2s1,0.315%
23,CC(C)CCNC(=O)c1ccc2c(Cl)c3c(nc2c1)CCC3,21.4%

row,SMILES,"hERG current change (%, negative = inhibition) at 10uM"
1,CCc1cccc(NS(=O)(=O)c2c(C)n[nH]c2C)c1.Cl,2.67%
2,Cn1cccc1C1(C(F)(F)F)NCCNC1=O (stereo not drawn),0.985%
3,O=C(COc1ccc([N+](=O)[O-])cc1)Nc1ccc(N2CCCC2)cc1,12.1%
4,O=C(Nc1nnc(-c2ccccc2Cl)o1)c1nc2ccccc2s1,1%
5,CCOC(=O)c1ccc(NC(=O)c2nccnc2C(=O)O)cc1,1.42%
6,CCOC(=O)C(C(=O)Nc1nc2ccccc2s1)C1CCCCC1 (stereo not drawn),12.4%
7,Cc1ccc(NC(=O)c2cccc(S(=O)(=O)N3CCCCC3)c2)cc1,11.4%
8,Cl.Nc1cnccc1Oc1cccc(C(F)(F)F)c1,4.65%
9,Clc1ccc(-c2ccc(CN3CCCCC3)o2)cc1,-11.8%
10,Cc1ccnc(NC(=O)c2cccc(S(=O)(=O)NCc3ccccc3)c2)c1,-34.6%
11,Cc1cc2c(n1-c1ccc(Br)cc1)CC(C)(C)CC2=O,-33.5%
12,CCCC(C(=O)NCc1ccco1)N(C(=O)CNS(=O)(=O)c1ccccc1)C1CCCC1 (stereo not drawn),-18.8%
13,Cc1cccc(N2CC(c3nc4ccccc4[nH]3)CC2=O)c1 (stereo not drawn),6.36%
14,COc1ccc(OCCOc2ccccc2[N+](=O)[O-])cc1,12.7%
15,CN(Cc1nccs1)C(=O)C1CCC(=O)N(Cc2ccccc2F)C1 (stereo not drawn),-16.1%
16,COCCOC(=O)c1c(C)oc2ccc(OC(=O)c3cccs3)cc12,10.8%
17,Nc1c(C(=O)NC2CCCCC2)nsc1C(=O)OCC(=O)NC1CCCCC1,12.5%
18,COc1ccccc1NC(=O)c1cc2c(CO)cnc(C)c2oc1=Nc1ccccc1,33.9%
19,O=C(O)c1ccccc1NC(=O)C(Cc1ccccc1)N1C(=O)c2ccccc2C1=O (stereo not drawn),11.3%
20,CC(=O)Nc1c(I)c(NC(C)=O)c(I)c(C(=O)O)c1I.CNC[C@H](O)[C@@H](O)[C@H](O)[C@H](O)CO,15.6%
21,COC(=O)c1ccc(C(C(=O)NCc2ccccc2)N(Cc2ccco2)C(=O)c2cnccn2)cc1 (stereo not drawn),-25.4%
